First the molecules themselves.
T1: UNK ZnF1-3 (human, UniProt Q9C0B0 31-174)
T1 sequence: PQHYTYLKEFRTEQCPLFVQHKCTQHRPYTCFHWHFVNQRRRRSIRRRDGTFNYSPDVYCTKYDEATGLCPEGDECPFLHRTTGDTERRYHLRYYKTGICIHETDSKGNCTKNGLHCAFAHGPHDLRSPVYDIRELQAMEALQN

B1: 215793453_215793573_2295_CDS_ENSG00000136636_ENST00000259154|human|control|control (ssRNA)
RNA: GGGAGUUCUACAGUCCGACGAUCAUUUUCAGGGACAGCUCUUUCUACAUUUCUGUUCAAAUUAAUAGUCUGGAAGUCCCUAUAACUGUGAAAGCUCUCAGUCCUUCUUGCCCUUGCUAAUAAAGGACUUUCUCUGUAAGGCCUCAACAGAGGAUUGAGCAUCA
B2: chr3:118931466:118931467:-_ENSG00000121578_ENST00000480814|hu_hu|FALSE|FALSE (ssRNA)
RNA: GGGAGUUCUACAGUCCGACGAUCACUGUGAUGUUGAUAUAUAAAGGAUUGUGUUCCACAGAUACUAAUUUAUAAGAACAACUACUCAACCCAUCUGUUCUCCAGACUCGUGACACUUGGUGUAAGAGCUUCAUCCGUUCUGCGCAACAGAGGAUUGAGCAUCA
B3: 57940872_57940992_4853_CDS_ENSMUSG00000003226_ENSMUST00000003310|mouse|control|control (ssRNA)
RNA: GGGAGUUCUACAGUCCGACGAUCUGAUACACAAGAUGUAGGCUGAUUCUGCUUAUUUGGAUACUGACAAGCAAUACAGUGAGUAGCACUGGCUUCAUUUCGGACAAAACACAAGCUACAGUCCCACUGUCCUUCUUUCUUGGCCAACAGAGGAUUGAGCAUCA
B4: chr1:58468927:58468928:-_ENSMUSG00000026034_ENSMUST00000148330|mus_mus|mus_mus_mus_hu_False|98_98 (ssRNA)
RNA: GGGAGUUCUACAGUCCGACGAUCAAUUACUGAAAAAUGAAAGAUGUACCUUAGCUAUGUACUUAAUGAACCAAAUUACCCAAACAAAAUAAACAUGGCAAUAUAAAAAUGUUAAGAAUUUACAAAGCUGUACAAAAUAACUUACAACAGAGGAUUGAGCAUCA
B5: chr3:149684035:149684036:-_ENSG00000070087_ENST00000452853|hu_mus|FALSE|FALSE (ssRNA)
RNA: GGGAGUUCUACAGUCCGACGAUCAGUUCAUAUGUUUUCUUGUUAAUUGUGCCUGCGUGGACACCUUCCUUUCCCAUGACUAUAACCAAUGCUGGAGUACACAAGGAAACAAAACAAAAAUGAACACAAUUAUUUAAGGGGAAGCAACAGAGGAUUGAGCAUCA
B6: chr6:74304526:74304527:-_ENSG00000119899_ENST00000355773|hu_hu|FALSE|FALSE (ssRNA)
RNA: GGGAGUUCUACAGUCCGACGAUCUAAUUAAGCAAAGGUAUCAGGAGGUCUGUUUCAGCUCAUUCCCUUUAGUAUGGCCCUAAAAAAUCAACAGAACUGUCCUACUUCAUGUUGCCCGACUAGCAGGCAGGUAUGUGAACCUAACAACAGAGGAUUGAGCAUCA
B7: chr3:184044699:184044700:+_ENSG00000114867_ENST00000411531|hu_hu|FALSE|FALSE (ssRNA)
RNA: GGGAGUUCUACAGUCCGACGAUCAUUAUCUGUGCUUUCUGUGGGUACCGCUUGUUGAAGGGCUGAGAAGCGAUUCAAAGUACUAGUAGCUGGGCGAGCAGCUUCUGAUGCUGCGUCUGAGGGCUUGGCUCCUGAGCCUCCGCUCAACAGAGGAUUGAGCAUCA
B8: chr12:105540249:105540250:+_ENSG00000136051_ENST00000332180|hu_hu|FALSE|FALSE (ssRNA)
RNA: GGGAGUUCUACAGUCCGACGAUCAUUGUUGAGAUUAUAGAGGUAUCGGGACACAAAUAUAUGAAUGUUUCUCAUAAUUUCUAAAACAUCAAGGCCCUGUUCCAAAGUCUGACUGGGAAGAUGUGCCUCUGUCAUAACCAGUCCCAACAGAGGAUUGAGCAUCA
B9: chr1:109605286:109605287:-_ENSG00000197780_ENST00000461096|hu_mus|hu_hu_hu_mus_True|58_98 (ssRNA)
RNA: GGGAGUUCUACAGUCCGACGAUCAAGUUUCAGAGUAUUCAGUGAUCACCUCUUUAAAUGCAAUUAUCCUUAUUAUAAACUAAGGGCAAUAAUAAUUUAAUACCGUAAGUGAACUACACACAAAGCCUGAACCGCGAAAAUGGUCAACAGAGGAUUGAGCAUCA
B10: chr3:10015032:10015033:+_ENSMUSG00000027533_ENSMUST00000029046|mus_mus|mus_mus_mus_hu_True|8_68 (ssRNA)
RNA: GGGAGUUCUACAGUCCGACGAUCGUUUUUACCAUCACAAGUGAUGAUACAAUCUGGCUUGGCCAUUGCAGCCAUCUUUCGCAAAGCUAUUCCCACUCCUAGCUCCUUCAUGUAUUCAUCAAAGCCUUGGCUUUCCACCAGGCGCAACAGAGGAUUGAGCAUCA
B11: chr8:74858975:74858976:-_ENSG00000154582_ENST00000284811|hu_mus|hu_hu_hu_mus_True|48_48 (ssRNA)
RNA: GGGAGUUCUACAGUCCGACGAUCGACCUUGUAGGUAAAAUACAUGCACACUUUUGAUAGCACAUGUGAGGGGAUCUCUCUAAAAUUGACCUCAUUGGUUUCAUUCUCAGCAAACUGACCUGGACCACUCAACAUAGCCUUUAUCAACAGAGGAUUGAGCAUCA
B12: chr4:155069534:155069535:+_ENSMUSG00000074738_ENSMUST00000099265|mus_hu|FALSE|FALSE (ssRNA)
RNA: GGGAGUUCUACAGUCCGACGAUCGUGAGCCGGAGUGCCCAUGGCUCUUGCUGGAAGGGGCUCCAUGCCCUGGCCGCCUCUAUAAAGGCCUGCGGAGAGCGGGGAGAGCCCUGGAUGCGGCUGGCACAGCAGCGCAAGCCCAGGCAACAGAGGAUUGAGCAUCA
B13: chr14:56114876:56114877:+_ENSMUSG00000022211_ENSMUST00000076236|mus_mus|FALSE|FALSE (ssRNA)
RNA: GGGAGUUCUACAGUCCGACGAUCGAGGGCAUUGGCCUCGUCUGUGGCAAGCAGCCCUGGGUUCUUGCUCAGGUCCAGGUAUCGGAGGGAGCUGGCAAAGGCUGGGUUGGCCCCGAAGGUCUGGCCCAGUGCCUGGAGCCCUCGCAACAGAGGAUUGAGCAUCA
B14: 119484126_119485788_879_CDS_ENSMUSG00000027305_ENSMUST00000110801|mouse|control|control (ssRNA)
RNA: GGGAGUUCUACAGUCCGACGAUCCCCACGAACUCGGAGAUACAGAGUAUUGAACUGGGACCAAUCAUAAGACAGCUUCCUCUCAAAAGCACCCCGUGGAAUCCUGGAGAUCAUGGCACAGUAUCCACUUUGUCUACUGUCCCCCAACAGAGGAUUGAGCAUCA
B15: chr1:120316058:120316059:+_ENSMUSG00000064302_ENSMUST00000049404|mus_mus|motif|central (ssRNA)
RNA: GGGAGUUCUACAGUCCGACGAUCCACCAUGUGUGUCUGAAGAGCAGCUGGUAGGAUAUUAAAAGUCCAAUUUAAAUAACGGGUAGGCAAUAAAGGAGAGAGUGGCGGAGUGAUGAUCUACAACUGGGUCUGAAAUACUUCAUACAACAGAGGAUUGAGCAUCA
B16: chr3:176740097:176740098:-_ENSG00000177565_ENST00000430069|hu_hu|FALSE|FALSE (ssRNA)
RNA: GGGAGUUCUACAGUCCGACGAUCUGUUUUUUACACCACAAAAGGAGGCACUUUCAGUAUCUGUAAAAGGUAUUUAAUCCUAAAACAUACUUACCUAGAGAAUAAUUAAAACAGAAUUCAAUACAAUCUAGUAUCUAUUAGGAACAACAGAGGAUUGAGCAUCA
B17: 3369786_3369906_1343_3pUTR_ENSMUSG00000025899_ENSMUST00000053407|mouse|control|control (ssRNA)
RNA: GGGAGUUCUACAGUCCGACGAUCAGUCCUUGUUGAUGCCAAGGUAUUUUCCAUUUCCACAUCCGAUAUCUGCCACUAUGGAACCACUUGGCAAAGCUUUCAGGAACUCUACUAUGCGUGGCCAUGGGCUAUGUCUUGUGCUGCCAACAGAGGAUUGAGCAUCA
B18: chr1:27731043:27731044:-_ENSG00000158195_ENST00000430629|hu_hu|FALSE|FALSE (ssRNA)
RNA: GGGAGUUCUACAGUCCGACGAUCGAAGAGCUCCUUUCCCAUCCUCAGGGGAAGAGUGCCUGUUUUCAAACGGCAUCCCUACUACACAUAUACCCCCCUUCCCUAAAAUCUUGAUGUGGCAAACACACCCAAGAACCCACAGGACAACAGAGGAUUGAGCAUCA
B19: chr3:150289932:150289933:+_ENSG00000144895_ENST00000460851|hu_hu|hu_hu_hu_mus_False|8_58 (ssRNA)
RNA: GGGAGUUCUACAGUCCGACGAUCCUUGUAGUUUUUAACAUCCCAUACUUCCAUUUGUCCUCGAAGAUUUCCAAAUCCAGCUAAUACUAAUAUAUGUCCAUGAGGGCUAUAGAAGGCUGCGUUGCGAGGACCAGUUCCAAAGUCCAACAGAGGAUUGAGCAUCA
B20: chr18:42481571:42481572:+_ENSMUSG00000024491_ENSMUST00000091920|mus_mus|FALSE|FALSE (ssRNA)
RNA: GGGAGUUCUACAGUCCGACGAUCAAGGUAUUGGAUGAGUGCUGCUUCUGGAUCACCCUUAAAAGCAACCUGGAUAUUAACUAUGGUUCCAAAUUUGCUGAAGUGUUCGUUGAGCUUGGUAAUGUUGUUCAAUUCCUGGGGGAUCAACAGAGGAUUGAGCAUCA
B21: chr3:88516089:88516090:+_ENSMUSG00000028060_ENSMUST00000029696|mus_mus|FALSE|FALSE (ssRNA)
RNA: GGGAGUUCUACAGUCCGACGAUCAUUGACCCAAUAGUAGUAAAAUACAAAUAAAACUUUCUUUACAACAGAGUUGAGGCUAUUCAUUUGGAAAAGGCUAGAUCAGGUCAAACAUAUGUAGCAAUGACUCUGUCCUGGUAUCUCCAACAGAGGAUUGAGCAUCA
B22: 109687645_109687765_1801_CDS_ENSG00000148143_ENST00000277225|human|control|control (ssRNA)
RNA: GGGAGUUCUACAGUCCGACGAUCGCUUGAGCUCUCAUAAGACACCACACCUUCAUUCAGUGAGGAAGAAAUGCUUUCACUCUGGGAAUUCACAGCAUCCCAAUCUGACGUUGUACCCGUGUGACACUGUUUGUGAGCCCCAAGCAACAGAGGAUUGAGCAUCA

Some of the results follow.

This test concerns the target T1, UNK ZnF1-3. Briefly: nsRBNS (natural sequence RNA bind-n-seq); RBNS binding buffer (assumed for nsRBNS): 25 mM Tris pH 7.5, 150 mM KCl, 3 mM MgCl2, 0.01% Triton X-100, 500 ug/ml BSA, 20 U/ml SUPERase-In, 4 C; UNK is unkempt and MSI1 is Musashi-1; names of the RNAs are library labels; protein concentration not given here; high values mean tight binding.
In the case of B1, the binding signal amounted to 0.648 enrichment R.

B2 yielded a binding signal of 0.904 enrichment R.

B3: the binding signal is 0.737 enrichment R.

B4: the binding signal is 2.47 enrichment R.

B5: the binding signal came to 1.4 enrichment R.

Turning to B6, the binding signal was determined as 0.906 enrichment R.

In turn, B7 came in with a binding signal of 0.7 enrichment R.

B8 yielded a binding signal of 1.14 enrichment R.

For B9, the binding signal stood at 1.19 enrichment R.

With B10, the binding signal amounted to 0.683 enrichment R.

On to B11, for which the binding signal came out at 0.924 enrichment R.

The molecule B12 came in with a binding signal of 0.861 enrichment R.

In turn, B13 showed a binding signal of 0.661 enrichment R.

In turn, B14 registered a binding signal of 1.41 enrichment R.

As for B15, the binding signal came to 2.61 enrichment R.

As for B16, the binding signal is 0.355 enrichment R.

Turning to B17, the binding signal worked out at 0.678 enrichment R.

Turning to B18, the binding signal amounted to 1.44 enrichment R.

B19 showed a binding signal of 1.12 enrichment R.

B20: the binding signal stood at 0.951 enrichment R.

On to B21, for which the binding signal stood at 2.78 enrichment R.

As for B22, the binding signal was 1.05 enrichment R.

The values are drawn from PMC12136788.
